# Laboratory results as given in PubChem BioAssay AID504466 (National Center for Advancing Translational Sciences (NCATS), 2011).
# Out of some 330,000 compounds screened, about 4,200 (1.3%) were called active. Inconclusive results, whose numbers are uncertain, are shown with a selection of clear calls. The call rests on the fitted dose curve; in most records, active means well fitted activation curve with a large enough effect; inconclusive means small, poorly fitted or top-dose-only effect; inactive means no such curve, though single readings can be large or run the other way. Potencies of inconclusive entries are doubtful fits and often do not repeat.
# Assay: qHTS screen for small molecules that induce genotoxicity in human embryonic kidney (HEK293T) cells expressing luciferase-tagged ELG1; further: nearly all actives have a fitted effect of over 60% in size; on activity change, positive = activation: % of control where 0% means no effect
# Conditions: HEK293T ELG1-luciferase reporter, luminescence, 16 h; series mostly up to 46 µM; activity change, positive = activation: at the top concentration
# Method in brief: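 16 hr compound incubation (37 °C, 5% CO2) of HEK293T cells carrying luciferase-tagged ELG1; luciferase then measured by ONE-Glo luminescence after 30 min at RT.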
# Potency means the concentration at half of the fitted maximal effect; tags describe the fitted curve by direction and shape.
Compound,"activity change, positive = activation",Potency
CC(=O)c1c(C)[nH]c(C(=O)OCC(=O)N2CCN(S(=O)(=O)c3ccc(C)cc3C)CC2)c1C,inactive: -15.3%,
CCOc1ccc2oc(C(=O)N(C)CCc3ccc(OC)c(OC)c3)c(C)c2c1,inactive: 0.209%,
Cc1csc(Nc2nc(N)c(C(=O)Nc3ccccc3)o2)n1,,"inconclusive: 20.6 µM [activator, partial curve, poor fit]"
CSc1ccc(/C=N/Nc2ccc(Cl)c(C(=O)O)c2)cc1,,"inconclusive: 0.366 µM [activator, full curve, poor fit]"
CCc1ccc(NC(=O)c2onc(C)c2Cl)cc1,,active: 5.17 µM
COc1cccc2c1CCc1c-2nc2ccccc2c1C(=O)O,,"inconclusive: 20.6 µM [activator, partial curve, poor fit]"
COc1ccc(CNC(=O)/C(C#N)=C2\N=C(NC(=O)c3cccs3)c3ccccc32)cc1,inactive: -5.21%,
CC(C)(C)c1ccc(C(=O)Nc2cccc(C(=O)N3CCOCC3)c2)cc1,,"inconclusive: 2.31 µM [activator, partial curve]"
CCC(Cc1ccccc1)NC(=O)c1ccc2nc(N3CCOCC3)sc2c1 (stereo not drawn),inactive: 0.225%,
CCc1cc2c(=O)n(-c3ccc(C)cc3)cnc2s1,,"inconclusive: 13 µM [activator, partial curve]"
COc1cc(OC)cc(-c2cc3nc(C)cc(N4CCN(C(=O)c5ccco5)CC4)n3n2)c1,inactive: 3.13%,
CCCN1CCC(NCc2cn(C)nc2-c2ccc(Oc3ccccc3)cc2)CC1,,"inconclusive: 29.1 µM [activator, single point]"
O=C(Nc1ccccn1)c1ccc(S(=O)(=O)N2CCCCCC2)cc1,,active: 9.2 µM
Cc1c(Br)c([N+](=O)[O-])nn1C(C)C(=O)N1CCCc2ccccc21 (stereo not drawn),inactive: -1.88%,
Cc1ccc2nc(SCC(=O)c3c(N)n(C)c(=O)n(C)c3=O)[nH]c2c1,inactive: -2.92%,
COC(=O)c1c(NC(=O)c2ccc(C)o2)sc2c1CCCCC2,,active: 10.3 µM
COc1ccc(SC[C@H](CC(C)C)N2CCN(C)CCC2=O)cc1,,"inconclusive: 23.1 µM [activator, partial curve, poor fit]"
COc1ccc(/C=N/NC(=O)c2ccco2)cc1Cn1nc(C)cc1C,,"inconclusive: 18.4 µM [activator, partial curve, poor fit]"
Cc1sc(N/N=C/c2cccnc2)nc1-c1ccc(Cl)cc1,,"inconclusive: 2.91 µM [activator, full curve, poor fit]"
Nc1cc(=O)[nH]c(SCc2cccc3ccccc23)n1,inactive: 0.274%,
O=C(Nc1ccc(N2CCCC2)cc1)c1ccccc1F,,"inconclusive: 1.46 µM [activator, partial curve]"
CCOC(=O)C1CCN(c2ccc(-c3cccs3)nn2)CC1,,"inconclusive: 16.4 µM [activator, partial curve, poor fit]"
CCc1ccc(NC(=S)N2CCN(C)CC2)cc1,,"inconclusive: 16.4 µM [activator, partial curve, poor fit]"
CC(C)c1ccc(NC(=O)COc2ccc(C3SCCS3)cc2)cc1,inactive: 0.164%,

Compound,"activity change, positive = activation",Potency
c1ccc(COc2cncc(-c3cccnc3)c2)cc1,inactive: -0.118%,
O=C(Cc1ccc(Br)cc1)Nc1cccc(-c2cn3c(n2)SCC3)c1,inactive: -13.4%,
CCOc1ccc2nc(NC(=O)CSc3nnnn3C3CCCCC3)sc2c1,,"inconclusive: 32.6 µM [activator, partial curve, poor fit]"
Brc1cccc(OCCSc2ncccn2)c1,inactive: 11.5%,
COCCCn1c(=O)/c(=C\c2ccccc2OC(C)C)s/c1=C(/C#N)C(=O)Nc1ccc(C(=O)O)cc1,inactive: -10%,
CCOc1ccc2nc(NC(=O)c3ccc(OCC4CCCO4)cc3)sc2c1 (stereo not drawn),inactive: -0.759%,
Cn1c(CNC(=O)c2ccccc2F)nnc1SCCOc1ccccc1,inactive: -0.234%,
NC(=O)c1sc2nc(-c3ccccc3)ccc2c1N,,"inconclusive: 8.2 µM [activator, partial curve]"
COc1ccc(-c2cc(C(=O)NCC(C)C)no2)cc1,,active: 2.59 µM
COCCSc1nc2c(c(=O)[nH]c(=O)n2C)n1Cc1cccc(C)c1,,"inconclusive: 20.6 µM [activator, single point]"
CCOc1cc(C(=O)CSc2nnc(CNc3ccc(Cl)cc3)o2)ccc1NC(=O)CC,inactive: 3.9%,
CCCCNC(=O)CSc1nc2ccccc2c(=O)n1Cc1ccc2c(c1)OCO2,,"inconclusive: 20.6 µM [activator, partial curve, poor fit]"
Cc1ccsc1/C=N/Nc1cccc(C(=O)O)c1,,"inconclusive: 0.073 µM [activator, full curve, poor fit]"
CCOc1ccc(NC(=O)Nc2cc(C)on2)cc1,,"inconclusive: 20.6 µM [activator, partial curve, poor fit]"
COc1ccc(C)cc1NC(=O)c1cnc2sccn2c1=O,,"inconclusive: 3.26 µM [activator, full curve, poor fit]"
O=C1c2ccccc2C(=O)N1CCOc1ccccc1Br,,"inconclusive: 16.4 µM [activator, partial curve]"
COCCN(C(=O)Cc1cccs1)C(C(=O)NC1CCCC1)c1cc(OC)c(OC)c(OC)c1 (stereo not drawn),,"inconclusive: 23.1 µM [activator, single point]"
C=CCn1c(SCC(=O)Nc2nccs2)nnc1-c1cc2cccc(OC)c2o1,,"inconclusive: 23.1 µM [activator, single point]"
CC(=O)Nc1cccc(C(=O)NC2CCCc3c2cnn3-c2ccc(C(C)(C)C)cc2)c1 (stereo not drawn),inactive: -11.5%,
NC(=O)N/N=C/c1cn(-c2ccccc2)nc1-c1ccccc1,,"inconclusive: 20.6 µM [activator, single point]"
CCC(=O)NCCc1nc2cc(NC(=O)c3cccs3)ccc2n1C,,"inconclusive: 16.4 µM [activator, partial curve]"
Cc1cccn2cc(CCNS(=O)(=O)c3cccs3)nc12,inactive: 4.15%,
C=C(C(=O)c1ccccc1)C(C)CC(=O)c1ccccc1 (stereo not drawn),inactive: -4.19%,
COc1ccc(/C=N/Nc2cc(C)nc3ccccc23)cc1,,"inconclusive: 23.1 µM [activator, partial curve, poor fit]"
